Here are results for 20 molecules from publication PMC9911399, “Two distinct binding modes provide the RNA-binding protein RbFox with extraordinary sequence specificity”.

The chains are these.
B1: UCUCUUU (DNA:RNA)
RNA: GGGAGACCGGAAUUCAGAUUGUCCUCUCUUUUUAAAUCCCGUCGUAGCCACCA
DNA 1: CAATCTGAATTCCGGTCTCCC
DNA 2: TGGTGGCTACGACGGGATT
B2: AGAGUCG (DNA:RNA)
RNA: B1 RNA with U25A, C26G, U27A, C28G, U30C, U31G
DNA 1: CAATCTGAATTCCGGTCTCCC
DNA 2: TGGTGGCTACGACGGGATT
B3: UAAUUGA (DNA:RNA)
RNA: B1 RNA with C26A, U27A, C28U, U30G, U31A
DNA 1: CAATCTGAATTCCGGTCTCCC
DNA 2: TGGTGGCTACGACGGGATT
B4: AUAGCCC (DNA:RNA)
RNA: GGGAGACCGGAAUUCAGAUUGUCCAUAGCCCUUAAAUCCCGUCGUAGCCACCA
DNA 1: CAATCTGAATTCCGGTCTCCC
DNA 2: TGGTGGCTACGACGGGATT
B5: CUGAGUG (DNA:RNA)
RNA: B4 RNA with A25C, A27G, G28A, C29G, C30U, C31G
DNA 1: CAATCTGAATTCCGGTCTCCC
DNA 2: TGGTGGCTACGACGGGATT
B6: ACACUAU (DNA:RNA)
RNA: B1 RNA with U25A, U27A, U30A
DNA 1: CAATCTGAATTCCGGTCTCCC
DNA 2: TGGTGGCTACGACGGGATT
B7: AAAACUU (DNA:RNA)
RNA: B4 RNA with U26A, G28A, C30U, C31U
DNA 1: CAATCTGAATTCCGGTCTCCC
DNA 2: TGGTGGCTACGACGGGATT
B8: CCGUACC (DNA:RNA)
RNA: B4 RNA with A25C, U26C, A27G, G28U, C29A
DNA 1: CAATCTGAATTCCGGTCTCCC
DNA 2: TGGTGGCTACGACGGGATT
B9: CCAAUGU (DNA:RNA)
RNA: B1 RNA with U25C, U27A, C28A, U30G
DNA 1: CAATCTGAATTCCGGTCTCCC
DNA 2: TGGTGGCTACGACGGGATT
B10: GCCGAUC (DNA:RNA)
RNA: B4 RNA with A25G, U26C, A27C, C29A, C30U
DNA 1: CAATCTGAATTCCGGTCTCCC
DNA 2: TGGTGGCTACGACGGGATT
B11: AACCUGC (DNA:RNA)
RNA: B4 RNA with U26A, A27C, G28C, C29U, C30G
DNA 1: CAATCTGAATTCCGGTCTCCC
DNA 2: TGGTGGCTACGACGGGATT
B12: GUCAACA (DNA:RNA)
RNA: B4 RNA with A25G, A27C, G28A, C29A, C31A
DNA 1: CAATCTGAATTCCGGTCTCCC
DNA 2: TGGTGGCTACGACGGGATT
B13: UAGUCGA (DNA:RNA)
RNA: B4 RNA with A25U, U26A, A27G, G28U, C30G, C31A
DNA 1: CAATCTGAATTCCGGTCTCCC
DNA 2: TGGTGGCTACGACGGGATT
B14: GUGAAAG (DNA:RNA)
RNA: B4 RNA with A25G, A27G, G28A, C29A, C30A, C31G
DNA 1: CAATCTGAATTCCGGTCTCCC
DNA 2: TGGTGGCTACGACGGGATT
B15: UUACGAC (DNA:RNA)
RNA: B4 RNA with A25U, G28C, C29G, C30A
DNA 1: CAATCTGAATTCCGGTCTCCC
DNA 2: TGGTGGCTACGACGGGATT
B16: CAUAAUC (DNA:RNA)
RNA: B1 RNA with U25C, C26A, C28A, U29A, U31C
DNA 1: CAATCTGAATTCCGGTCTCCC
DNA 2: TGGTGGCTACGACGGGATT
B17: UGAAUUA (DNA:RNA)
RNA: B1 RNA with C26G, U27A, C28A, U31A
DNA 1: CAATCTGAATTCCGGTCTCCC
DNA 2: TGGTGGCTACGACGGGATT
B18: GUUCUGA (DNA:RNA)
RNA: B1 RNA with U25G, C26U, U30G, U31A
DNA 1: CAATCTGAATTCCGGTCTCCC
DNA 2: TGGTGGCTACGACGGGATT
B19: UGGCAAC (DNA:RNA)
RNA: B1 RNA with C26G, U27G, U29A, U30A, U31C
DNA 1: CAATCTGAATTCCGGTCTCCC
DNA 2: TGGTGGCTACGACGGGATT
B20: CAGUAUC (DNA:RNA)
RNA: B4 RNA with A25C, U26A, A27G, G28U, C29A, C30U
DNA 1: CAATCTGAATTCCGGTCTCCC
DNA 2: TGGTGGCTACGACGGGATT

Residue numbers refer to the chain shown, from its start. Some of the results follow.

This test addresses T1, RBFOX1 RRM RbFoxmut (Fox-RRM*) (Homo sapiens, UniProt Q9NWB1 109-208, R118D;E147R;N151S;E152T).
T1 sequence: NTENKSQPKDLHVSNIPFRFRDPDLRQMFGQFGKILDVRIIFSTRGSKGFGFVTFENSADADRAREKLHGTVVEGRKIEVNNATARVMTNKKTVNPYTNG
Put plainly: EMSA; HiTS-Eq, 1 nM pool, 10 min; buffer printed only for the single-RNA assays: 10 mM Tris pH 7.5, 150 mM NaCl, 3.4 mM EDTA, 0.001% NP-40, 30 C. The note with it: tags: His6 N-terminal (pET28a); label: 5' 32P. In a few lines:
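Purified RbFox RRM, wild type or mutant, was incubated for 10 min in 50 µL with 1 nM of a 5′-radiolabelled RNA pool carrying 7 randomized nucleotides, whose flanks were annealed to DNA oligonucleotides, over a series of increasing protein concentrations. Unbound RNA was resolved on 8% native PAGE, cut out, reverse-transcribed, barcoded by PCR and sequenced on an Illumina HiSeq 2500. Relative association constants were derived from changes in read counts for each RNA species versus the control reaction and normalised to the cognate motif.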
(A gel shift assay detects complexes by their altered migration in electrophoresis.)
With B1, the binding signal was 0.0529 KA relative to UGCAUGU.

With B2, the binding signal is 0.11 KA relative to UGCAUGU. The figure for B3 is 0.0673 KA relative to UGCAUGU. With B4 the figure was 0.0854 KA relative to UGCAUGU; with B5, 0.142 KA relative to UGCAUGU. The figure for B6 is 0.0878 KA relative to UGCAUGU; for B7 it is 0.0794 KA relative to UGCAUGU; for B8 it is 0.0822 KA relative to UGCAUGU. For B9, the binding signal was 0.102 KA relative to UGCAUGU.

As to B10, the binding signal was 0.0691 KA relative to UGCAUGU. The figure for B11 is 0.0563 KA relative to UGCAUGU; for B12 it is 0.0755 KA relative to UGCAUGU. With B13 the figure was 0.0897 KA relative to UGCAUGU. The figure for B14 is 0.106 KA relative to UGCAUGU. As to B15, the binding signal was 0.0702 KA relative to UGCAUGU. B16: the binding signal is 0.0533 KA relative to UGCAUGU.

With B17, the binding signal is 0.0758 KA relative to UGCAUGU. The figure for B18 is 0.11 KA relative to UGCAUGU. B19: the binding signal was 0.05 KA relative to UGCAUGU.

Regarding B20, the binding signal was 0.177 KA relative to UGCAUGU.
